Source: PubChem BioAssay (Tox21)
Inconclusive means that the source gave no clear call. Potencies beside an inconclusive call are fits to weak or partial responses and may not hold up.

Assay: Caspase-3/7 induction in HepG2 cells by small molecules, qHTS assay (AID 1346978); note: nearly all actives have a fitted effect of over 15% in size
Conditions: HepG2 caspase-3/7 activation, Caspase-Glo luminescence, 17 h; series mostly up to 92.4 µM; active = well fitted activation curve with a large enough effect in the repeat runs; inconclusive = weak or mixed curves; inactive = flat fitted curve, though single readings scatter
How it was run: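 Wild-type HepG2 cells, 2,000/well, settled 5 hr at 37 C and 5% CO2, then compound-treated for 17 hr; caspase-3/7 activity read by luminescent Caspase-Glo 3/7 after 30 min at room temperature.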
Potency is the fitted concentration of half-maximal effect; tags give direction and shape of the fitted curve.

Q: With `C/C(=C\c1ccccc1)[N+](=O)[O-]` as the compound, how does the Potency read?
A: inconclusive: 27.3 µM [activator]

Q: Which Potency does the source give for `c1ccc(N=NNc2ccccc2)cc1` here?
A: inconclusive: 3.56 µM [activator, partial curve, poor fit]

Q: Which Potency does the source give for `CC(c1ccccc1)(c1ccc(O)cc1)c1ccc(O)cc1` here?
A: inconclusive: 54.5 µM [activator, partial curve, poor fit]

Q: For `COc1cccc2c1C(=O)c1c(O)c3c(c(O)c1C2=O)C[C@@](O)(C(=O)CO)CC3OC1CC(N2CCOC(OC)C2)C(O)C(C)O1` (some centres not stated), which Potency is on record?
A: inconclusive: 1.33 µM [activator, full curve, poor fit]

Q: Which Potency does the source give for `CCCCC(O)(Cn1cncn1)c1ccc(Cl)cc1Cl` (configuration not stated) here?
A: inconclusive: 61.1 µM [activator, partial curve]

Q: Which Potency does the source give for `Oc1ccc(Cl)c(Cl)c1Cl` here?
A: inconclusive: 79.8 µM [activator, partial curve, poor fit]

Q: With `Clc1ccc(CO/N=C(\Cn2ccnc2)c2ccc(Cl)cc2Cl)c(Cl)c1` as the compound, how does the Potency read?
A: inconclusive: 33.5 µM [activator, single point]
